From the supplement of paper PMC8728848
Some of the results follow.

How the values were obtained:
Assay in all cases: glycan array binding signal (z-score within array); higher = stronger binding
Settings in all cases: glycan notation: IUPAC condensed, linker removed
[1] = molecular target: GalNAc(b1-4)GlcNAc(b1-2)Man
Outline: (§1)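 Arrays were curated from the Consortium for Functional Glycomics database, 3228 in total, and kept only where the protein sequence was available. Binding is expressed as a within-array Z-score. This score was averaged across arrays of the same protein sequence at different concentrations or buffers and across linkers, and negative values can be read as non-binding.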

[2] = molecular target: GalNAc(b1-4)GlcNAc(b1-2)Man(a1-3)[GalNAc(b1-4)GlcNAc(b1-2)Man(a1-6)]Man(b1-4)GlcNAc(b1-4)GlcNAc
Outline: as §1

[3] = molecular target: GalNAc(b1-4)GlcNAc(b1-3)GalNAc(b1-4)GlcNAc
Outline: as §1

[4] = molecular target: GalNAc(b1-4)GlcNAc6S
Outline: as §1

[5] = molecular target: GalNAc(b1-6)GalNAc
Outline: as §1

[6] = molecular target: GalNAc3S(b1-4)GlcNAc
Outline: as §1

[7] = molecular target: GalNAc3S(b1-4)GlcNAc3S
Outline: as §1

[8] = molecular target: GalNAc3S(b1-4)[Fuc(a1-3)]GlcNAc
Outline: as §1

[9] = molecular target: GalNAc4S6S(b1-4)GlcNAc
Outline: as §1

[10] = molecular target: GalNAc6S(b1-4)GlcNAc
Outline: as §1

[11] = molecular target: Glc(a1-4)Glc
Outline: as §1

[12] = molecular target: Glc(a1-4)Glc(a1-4)Glc(a1-4)Glc
Outline: as §1

[13] = molecular target: Glc(a1-6)Glc(a1-6)Glc
Outline: as §1

[14] = molecular target: Glc(a1-6)Glc(a1-6)Glc(a1-6)Glc
Outline: as §1

[15] = molecular target: Glc(b1-4)Glc
Outline: as §1

[16] = molecular target: Glc(b1-6)Glc
Outline: as §1

[17] = molecular target: GlcA(b1-3)Gal
Outline: as §1

[18] = molecular target: GlcA(b1-3)GlcNAc
Outline: as §1

[19] = molecular target: GlcA(b1-6)Gal
Outline: as §1

[20] = molecular target: GlcA3S(b1-3)Gal(b1-4)GlcNAc(b1-2)Man
Outline: as §1

[21] = molecular target: GlcA3S(b1-3)Gal(b1-4)GlcNAc(b1-3)Gal(b1-4)Glc
Outline: as §1

[22] = molecular target: GlcNAc(a1-3)Gal(b1-4)GlcNAc
Outline: as §1

[23] = molecular target: GlcNAc(a1-4)Gal(b1-3)GlcNAc
Outline: as §1

[24] = molecular target: GlcNAc(a1-4)Gal(b1-4)GalNAc
Outline: as §1

[25] = molecular target: GlcNAc(a1-4)Gal(b1-4)GlcNAc
Outline: as §1

[26] = molecular target: GlcNAc(a1-4)Gal(b1-4)GlcNAc(b1-3)Gal(b1-4)Glc
Outline: as §1

[27] = molecular target: GlcNAc(a1-4)Gal(b1-4)GlcNAc(b1-3)Gal(b1-4)GlcNAc
Outline: as §1

[28] = molecular target: GlcNAc(a1-4)Gal(b1-4)GlcNAc(b1-3)Gal(b1-4)GlcNAc(b1-3)Gal(b1-4)GlcNAc
Outline: as §1

[29] = molecular target: GlcNAc(a1-4)Gal(b1-4)GlcNAc(b1-3)Gal(b1-4)[Fuc(a1-3)]GlcNAc(b1-3)Gal(b1-4)[Fuc(a1-3)]GlcNAc
Outline: as §1

[30] = molecular target: GlcNAc(a1-6)Gal(b1-4)GlcNAc
Outline: as §1

[31] = molecular target: GlcNAc(b1-2)Gal(b1-3)GalNAc
Outline: as §1

[32] = molecular target: GlcNAc(b1-2)Man(a1-3)[GlcNAc(b1-2)Man(a1-6)]Man(b1-4)GlcNAc(b1-4)GlcNAc
Outline: as §1

[33] = molecular target: GlcNAc(b1-2)Man(a1-3)[GlcNAc(b1-2)Man(a1-6)]Man(b1-4)GlcNAc(b1-4)[Fuc(a1-6)]GlcNAc
Outline: as §1

[34] = molecular target: GlcNAc(b1-2)Man(a1-3)[GlcNAc(b1-4)][GlcNAc(b1-2)Man(a1-6)]Man(b1-4)GlcNAc(b1-4)GlcNAc
Outline: as §1

[35] = molecular target: GlcNAc(b1-2)Man(a1-3)[GlcNAc(b1-4)][GlcNAc(b1-2)Man(a1-6)]Man(b1-4)GlcNAc(b1-4)[Fuc(a1-6)]GlcNAc
Outline: as §1

[36] = molecular target: GlcNAc(b1-2)[GlcNAc(b1-4)]Man(a1-3)[GlcNAc(b1-2)Man(a1-6)]Man(b1-4)GlcNAc(b1-4)GlcNAc
Outline: as §1

[37] = molecular target: GlcNAc(b1-2)[GlcNAc(b1-4)]Man(a1-3)[GlcNAc(b1-4)][GlcNAc(b1-2)Man(a1-6)]Man(b1-4)GlcNAc(b1-4)GlcNAc
Outline: as §1

[38] = molecular target: GlcNAc(b1-2)[GlcNAc(b1-4)]Man(a1-3)[GlcNAc(b1-4)][GlcNAc(b1-2)[GlcNAc(b1-6)]Man(a1-6)]Man(b1-4)GlcNAc(b1-4)GlcNAc
Outline: as §1

[39] = molecular target: GlcNAc(b1-2)[GlcNAc(b1-4)]Man(a1-3)[GlcNAc(b1-4)][GlcNAc(b1-2)[GlcNAc(b1-6)]Man(a1-6)]Man(b1-4)GlcNAc(b1-4)[Fuc(a1-6)]GlcNAc
Outline: as §1

[40] = molecular target: GlcNAc(b1-2)[GlcNAc(b1-6)]Man(a1-6)[GlcNAc(b1-2)Man(a1-3)]Man(b1-4)GlcNAc(b1-4)GlcNAc
Outline: as §1

[41] = molecular target: GlcNAc(b1-2)[GlcNAc(b1-6)]Man(a1-6)[GlcNAc(b1-2)Man(a1-3)]Man(b1-4)GlcNAc(b1-4)[Fuc(a1-6)]GlcNAc
Outline: as §1

[42] = molecular target: GlcNAc(b1-2)[GlcNAc(b1-6)]Man(a1-6)[GlcNAc(b1-4)][GlcNAc(b1-2)Man(a1-3)]Man(b1-4)GlcNAc(b1-4)GlcNAc
Outline: as §1

[43] = molecular target: GlcNAc(b1-3)Fuc
Outline: as §1

[44] = molecular target: GlcNAc(b1-3)Gal
Outline: as §1

[45] = molecular target: GlcNAc(b1-3)Gal(b1-3)GalNAc
Outline: as §1

B1: Pwp5 ND (Candida glabrata) (protein)
chain: MGSSHHHHHHSSGLVPRGSHMASANPVPLTNVCYFPEEYPRQAGFRAITAGLASTILQGSVDELLNYSGLSSLTTQQTTTTTPNFQLPTLPLPTNVYGLTVVPLYLLVQLQGYFVPPVSGQYTFSLENTNDAAIIFFGNPSAFPCGDLSAWPQASADDITVTDGTFPSRTLFLKAGVAYPMRISYYNSLGSGNLAVSFTDPGGTKRTNWNGYIWRYNSCSTCTYT
[1]
  glycan array binding signal (z-score): 1.93
[2]
  glycan array binding signal (z-score): 0.84
[3]
  glycan array binding signal (z-score): -0.5
[4]
  glycan array binding signal (z-score): -0.569
[5]
  glycan array binding signal (z-score): -0.272
[6]
  glycan array binding signal (z-score): 1.89
[7]
  glycan array binding signal (z-score): 0.072
[8]
  glycan array binding signal (z-score): -0.298
[9]
  glycan array binding signal (z-score): 0.436
[10]
  glycan array binding signal (z-score): -0.426
[11]
  glycan array binding signal (z-score): -0.425
[12]
  glycan array binding signal (z-score): -0.622
[13]
  glycan array binding signal (z-score): 0.507
[14]
  glycan array binding signal (z-score): -0.62
[15]
  glycan array binding signal (z-score): -0.516
[16]
  glycan array binding signal (z-score): 0.018
[17]
  glycan array binding signal (z-score): 0.076
[18]
  glycan array binding signal (z-score): 0.299
[19]
  glycan array binding signal (z-score): -0.554
[20]
  glycan array binding signal (z-score): -0.035
[21]
  glycan array binding signal (z-score): -0.369
[22]
  glycan array binding signal (z-score): -0.578
[23]
  glycan array binding signal (z-score): -0.557
[24]
  glycan array binding signal (z-score): -0.199
[25]
  glycan array binding signal (z-score): -0.128
[26]
  glycan array binding signal (z-score): 0.155
[27]
  glycan array binding signal (z-score): 0.138
[28]
  glycan array binding signal (z-score): -0.447
[29]
  glycan array binding signal (z-score): -0.171
[30]
  glycan array binding signal (z-score): -0.376
[31]
  glycan array binding signal (z-score): -0.531
[32]
  glycan array binding signal (z-score): 0.222
[33]
  glycan array binding signal (z-score): -0.407
[34]
  glycan array binding signal (z-score): -0.939
[35]
  glycan array binding signal (z-score): -0.687
[36]
  glycan array binding signal (z-score): -0.667
[37]
  glycan array binding signal (z-score): -0.405
[38]
  glycan array binding signal (z-score): -0.579
[39]
  glycan array binding signal (z-score): -0.099
[40]
  glycan array binding signal (z-score): 3.15
[41]
  glycan array binding signal (z-score): -0.252
[42]
  glycan array binding signal (z-score): -0.43
[43]
  glycan array binding signal (z-score): -0.494
[44]
  glycan array binding signal (z-score): -0.375
[45]
  glycan array binding signal (z-score): 0.032
